Reference: PubChem BioAssay AID1508624 (National Center for Advancing Translational Sciences (NCATS), 2021)
Screen size: about 48,000 compounds; about 120 (0.25%) were called active. Not shown: some 4% with an inconclusive outcome. The call rests on the fitted dose curve; in most records, active means well fitted activation curve with a large enough effect; inconclusive means small, poorly fitted or top-dose-only effect, or another doubt; inactive means no such curve, though single readings can be large or run the other way. The list shows a part of the results.

Assay: Primary qHTS for Identification of Small Molecule Activators of Huntingtin-Antisense Promoter Activity; further: nearly all actives have a fitted effect of over 55% in size
Settings: HEK293 HTT-AS promoter firefly luciferase reporter, 24 h; series mostly up to 57.5 µM; activity change, positive = activation: at the top concentration
Method in brief: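 Quantitative HTS used concentration series of up to 57.5 uM final on HEK293 luciferase reporter cells, 24 h at 37 degrees C. Readout was Dual-Glo firefly luminescence.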

| Structure (SMILES) | activity change, positive = activation |
| --- | --- |
| Nc1ncnc2nc[nH]c12 | inactive: -1.78% |
| CCc1ccc(S(=O)(=O)c2nnn3c2nc(NCCNC(C)=O)c2cc(Cl)ccc23)cc1 | inactive: 0% |
| CC(C)(C)NC(=O)c1oc2ccccc2c1NC(=O)c1ccc(F)cc1 | inactive: -2.51% |
| COc1ccc(CCN2C(=O)CN(C3CCC(C)CC3)C(=O)C2c2ccc(OC(C)C)c(OC)c2)cc1OC (centres undefined) | inactive: -20.9% |
| CCc1nn(CCCC(=O)NC(C)c2ccccc2)c(=O)c2cc3occc3n12 (centres undefined) | inactive: -11.3% |
| COCCN(CCOC)c1ncnc2c1c(-c1ccccc1)cn2-c1ccc(C)c(Cl)c1 | inactive: -30.7% |
| Cc1ccc(Cn2cc(CCC(=O)NCc3ccc(OC(C)C)cc3)c3ccccc32)cc1 | inactive: -20.8% |
| CCCCNC(=O)C(CC)Sc1nc2ccccc2c(=O)n1CCc1ccc(OC)c(OC)c1 (centres undefined) | inactive: -5.8% |
| Cc1ccc(S(=O)(=O)c2nnn3c2nc(NCc2ccccc2Cl)c2sccc23)cc1 | inactive: -15.2% |
| CCOC(=O)c1ccc(NC(=O)c2nn(C)c3c2COc2ccccc2-3)cc1 | inactive: -1.67% |
| CC(C)c1ccc(OCc2cc(=O)n3c(-c4ccccc4)csc3n2)cc1 | inactive: -18.5% |
| COc1cc(-c2cc(OC)c3c(C)oc(C)c3c(=O)c2)ccc1OC(=O)c1cccc(Cl)c1 | inactive: -18.6% |
| COc1ccc(NC(=O)CCCN2C(=O)COc3ccc(C)cc32)cc1OC | inactive: -11.8% |
| CCCCN1CCCC[C@H]1C(=O)Nc1c(C)cccc1C | inactive: -13.9% |
| O=C(Cn1c(=O)n(-c2ccc(Cl)cc2)c(=O)c2c3c(sc21)CCC3)c1ccccc1 | inactive: -9.62% |
| CCOC(=O)c1c(NC(=O)CSc2cn(CCNC(=O)c3ccccc3F)c3ccccc23)sc2c1CCCC2 | inactive: -34.3% |
| CC(C)(C)OC(=O)N1CCC(c2c(C(=O)N3CCN(C(=O)c4ccco4)CC3)cnn2-c2ccccc2Cl)CC1 | inactive: -18.6% |
| COCCCNC(=O)c1ccc2c(c1)NC(=O)C(C(C)C)N2 (centres undefined) | inactive: -10% |
| O=C(Cn1c(=O)c2cccn2c2cccnc21)NCc1ccccc1F | inactive: -9.73% |
| CC1=C(C(=O)Nc2ccc(C)cc2C)C(c2ccccc2F)n2nc(SCC(=O)c3ccc(C)cc3)nc2N1 (centres undefined) | inactive: 0% |

| Structure (SMILES) | activity change, positive = activation |
| --- | --- |
| CCc1ccc(NC(=O)c2cnc3sc(N4CCCC4)nn3c2=O)cc1 | inactive: -28.2% |
| Cc1cc2nc(-c3ccc(OCc4ccccc4)cc3)cc(C(F)(F)F)n2n1 | inactive: -0.378% |
| COc1ccccc1NC(=O)C1CCC(CNS(=O)(=O)c2ccc3c(c2)CC(C)N3C(C)=O)CC1 (centres undefined) | inactive: -48.7% |
| Cc1cc(-n2c(C)nc3ccccc3c2=O)ccc1NC(=O)c1ccc([N+](=O)[O-])cc1 | inactive: -15% |
| O=C(Nc1ccc(S(=O)(=O)N2CCCCCC2)cc1)c1cc(=O)c2ccccc2o1 | inactive: -7.04% |
| Cc1ccc(NC(=O)Cn2c(=O)n(Cc3ccc4c(c3)OCO4)c(=O)c3ccc(C(=O)NC4CCCCC4)cc32)c(C)c1 | inactive: -9.93% |
| CCc1ccc(NC(=O)Cn2c(-c3cncs3)nc3ccccc32)cc1 | inactive: -16.8% |
| CCn1c2ccccc2c2cc(CN3CCN(Cc4ccccc4C)CC3)ccc21 | inactive: -21.1% |
| COc1ccccc1C(=O)Nc1ccc(OCc2cc(=O)n3cc(C)sc3n2)cc1 | inactive: -4.22% |
| COc1ccc(C)cc1NC(=O)c1ccc2c(c1)nnn2C1CCCC1 | inactive: -19.5% |
| Cc1ccc2[nH]c(=O)c3cc(C(=O)NCCc4ccc(Cl)cc4)sc3c2c1 | inactive: -14.2% |
| O=C(c1ccc2c(c1)N(Cc1cccc(Cl)c1)C(=O)c1ccccc1S2)N1CCOCC1 | inactive: -32.2% |
| c1ccc(OCCn2c(COc3ccccc3)nc3ccccc32)cc1 | inactive: 1.72% |
| O=C1c2oc3ccccc3c(=O)c2C(c2cccc(Cl)c2)N1c1ccccn1 (centres undefined) | inactive: -15.8% |
| COc1ccc(S(=O)(=O)c2cnc(SCC(=O)Nc3cc(F)ccc3C)[nH]c2=O)cc1Cl | inactive: -2.93% |
| CCC1CCCCN1C(=O)c1sc(-n2nc(C)c(Cc3ccccc3)c2C)nc1C (centres undefined) | inactive: -9.97% |
| CC(=O)c1cccc(NC(=O)c2cc3c(s2)-c2c(C)cccc2OC3)c1 | inactive: -38.9% |
| Cc1ccc(Cl)cc1NC(=O)CN1C(=O)C(C)(C)c2cc(S(=O)(=O)N3CCCCC3)ccc21 | inactive: -38.6% |
| COc1cccc(OC(=O)CSc2nnc(-c3ccc4c(c3)OCO4)o2)c1 | inactive: -53.3% |
| CC(C)CCN(C(=O)Nc1ccc(Cl)c(Cl)c1)C(C)c1cccs1 (centres undefined) | inactive: -27% |

| Structure (SMILES) | activity change, positive = activation |
| --- | --- |
| CCOC(=O)c1c(S(=O)(=O)NCC(=O)NCc2ccccc2)c(C)n(C)c1C | inactive: -15.2% |
| O=C1Nc2ccc(Cl)cc2[C@@](C#CC2CC2)(C(F)(F)F)O1 | inactive: -38% |
| CCOC(=O)c1ccc(OC(=O)c2cn(-c3cccc(OC)c3)c(=O)c3ccccc23)cc1 | inactive: -22.2% |
| CCc1ccc2c(c1)NC(c1ccc(OC)cc1)=NC(c1ccncc1)=N2 | inactive: -7.54% |
| CCOc1ccccc1NC(=O)C(C)N(c1ccccc1)S(C)(=O)=O (centres undefined) | inactive: -8.95% |
| COc1cc(/C=C/c2nc(C#N)c(N3CCC(C)CC3)o2)cc(OC)c1OC | inactive: -31.6% |
| CC(=O)c1ccc(N2CCN(C(=O)CCS(=O)(=O)c3ccc4c(c3)oc(=O)n4C)CC2)cc1 | inactive: 10.2% [at 11.5 µM, percent change from vehicle, -100% = no light] |
| CCOc1ccc(NS(=O)(=O)c2ccc3[nH]cc(C(=O)NCC4CCCO4)c(=O)c3c2)cc1 (centres undefined) | inactive: -10.1% |
| Nc1c(-c2nc(-c3ccc(F)cc3)cs2)c2ccccn2c1C(=O)c1ccc2c(c1)OCO2 | inactive: 5.94% |
| CCOc1ccc(N2CC(C(=O)NCc3nnnn3-c3ccc(C)c(C)c3)CC2=O)cc1 (centres undefined) | inactive: -13.9% |
| CCSc1ncc(Cl)c(C(=O)Nc2sc3c(c2C(=O)NC)CCCC3)n1 | inactive: 0.535% |
| CCc1cccc(NC(=O)CN(C)S(=O)(=O)c2cccc3cccnc23)c1 | inactive: -22.3% |
| Nc1ccc(C(=O)O)c(O)c1 | inactive: 0.694% |
| CC1CCc2c(sc(NC(=O)c3cc4nc(-c5ccc(Cl)cc5)cc(C(F)(F)F)n4n3)c2C#N)C1 (centres undefined) | inactive: 4.92% [at 11.5 µM, percent change from vehicle, -100% = no light] |
| CC(Sc1oc(-c2cccs2)nc1S(=O)(=O)c1ccccc1)c1ccccc1 (centres undefined) | inactive: -12% |
| Cn1nccc1C(=O)NCc1ccc2c(c1)CCN2C(=O)c1ccc(Cl)cc1 | inactive: -10.2% |
| Cc1c(C(=O)Nc2ccc(F)cc2F)sc2nc3n(c(=O)c12)N=C(c1ccccc1)CS3 | inactive: 12.1% |
| COc1ccc(C(CNC(=O)COc2cc(C)cc(C)c2)N2CCOCC2)cc1 (centres undefined) | inactive: -14.4% |
| O=C1c2ccccc2-c2onc3c(NCCO)cc(NC4CCCCC4)c1c23 | inactive: -31.2% |
